In all, about 81,000 sequences were measured (“one-hybrid fitness for binding parS DNA”: median about -0.17, highest 2% from about 0.51 on). The list shows a part of the results.
B1: Caulobacter ParB omega fusion; a variant is named by its letters at X, in order, B8GW30 (parent)
chain: MESVVVGEPGMSEGRRGLGRGLSALLGEVDAAPAQAPGEQLGGSREAPIEILQRNPDQPRRTFREEDLEDLSNSIREKGVLQPILVRPSPDTAGEYQIVAGERAWRAAQRAGLKTVPIMVRELDDLAVLEIGIIENVQRADLNVLEEALSYKVLMEKFERTQENIAQTIGKSXSHVANXMRLLXLPDEVQSYLVSGELTAXHARAIAAAADPVALAKQIIEGGLSVRETEALARKAPNLSAGKSKGGRPPRVKDTDTQALESDLSSVLGLDVSIDHRGSTGTLTITYATLEQLDDLCNRLTRGI

Variants of: B1
Assay: one-hybrid fitness for binding parS DNA (scaled: cognate 1, non-cognate 0); higher = stronger binding
Settings: with parS DNA site
Method in brief: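 Bacterial one-hybrid selection in E. coli USO rpoZ- hisB- pyrF- with a HIS3 reporter carrying the site 19 bp from the promoter, screening Caulobacter ParB libraries with four specificity codons randomised (NNS). Cells grew 48 hours at 37°C on M9-minus-histidine plus 0.1 mM IPTG and 5 mM 3-AT. Plasmids before and after selection were Illumina-sequenced, three replicate libraries pooled, and variants under 10 reads dropped. Fitness is the log change in variant-to-wild-type read ratio, rescaled to cognate 1, non-cognate 0.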

one-hybrid fitness for binding parS DNA, ≤ 0.2:
HTTK
TARE
KTPT
RPKC
GYAT
AFSR
NLCA
QMRE
VRHK
SSEH
IFTS
RRWI
NYSE
HPVM
TCWL
AAEY
LTKA
VWTY
IMMS
VSAK
QKCM
CGRC
CGHR
HVGC
SRLG
FMVR
GDSC
MHPS
ASPL
EKYF
SCGD
YHQW
FEAR
VTTC
IGAR
MTYW
ILMT
KTTA
GHPT
HNCG
SLVL
NYKL
RCCH
QFKW
LMRF
KNAC
HRPK
QSCP
AFQW
HHLL
TDDR
QESY
LPAG
TVII
KCYL
PLCL
GQHC
QYFC
YMDT
HKCG
NSWG
YHLS
EYGR
HTPY
CCFS
TSQW
ICPC
TRFL
QHVW
HANC
VMKS
QKET
AATF
LLTS
HMLF
SCMG
YPTW
CTMR
NIVE
LIRT
QTKK
SMKG
PKNC
RFPM
HLKY
PGLD
FQRS
QLIA
RQDI
NLAC
VPWS
GNAL
CMER
QSIG
MDCR
DMKL
SFER
PDNV
DASP
LKDA
QPKY
ANCS
VTPN
RTEV
TLKV
YFAD
EKHS
LRYP
HSAV
RYFE
QPQS
GKAC
QTTD
MHCG
VQFS
WISW
DSTA
TDFS
HSQP
PLHM
SFLT
SWQG
NLMC
PRIV
LPPH
IEDG
EATS
WSRP
ICYS
VAES
PLTW
QQMF
FETS
EFKG
IQPG
ELHG
AIVL
PLKI
DSRA
TQPT
RDQC
NEWG
EMQT
TVKY
MHES
DACG
YIVW
SPRD
LRVG
TGQT
NDIT
PQQE
CGPG
SKNC
RNSW
PENW
TETG
RGCR
SPFQ
MQDG
PNKF
PFTN
DNDW
TTHN
RFKI
AKEE
AITT
KSKL
FYTL
NIRT
QHNK
CCQR
NIQS
QQVR
KGLT
EMVC
NCTA
SRYT
TSEF
VATC
TRQK
TGLL
CPRP
KQMG
GFVP
YKMR
NPVW
QLGA
TQHA
ARHQ
GSHT
EHLT
AKSL
FIRS
PMTH
AMLW
HMQV
GAFG
QIYT
NNKS
YVDV
YKFL
HPLD
PAPF
GASE
HKKQ
HNHN
KCRL
PVPM
LLCI
WMRI
HSMY
LTFR
LQHD
TFFG
TTSQ
DRQY
HDLG
GSVG
DTTM
TAVW
HGNG
ATKT
FSTE
PVKA
KHQD
RPNY
QGGS
DTGG
MTKR
LLPT
CYYP
NCRT
KPCR
QPRE
QYAL
GMLL
PPQC
SQPW
LHPN
PAKN
MTKA
CVLE
SIYY
RCYP
HDDR
AFMM
TVQN
HSWS
QQGL
AKTI
RCRI
GMHY
EGGR
EICG
FSWC
TETT
RPHL
DQSN
QKKR
DLYE
PMPG
CDCR
STVI
TAND
YYVC
PAFL
VMGC
MCSP
PWMD
QPVK
DAAG
NYNS
CQAY
NYRD
YVTN
IPDV
DLST
DNDV
VVPD
KYQS
YVTH
ATQV
YVYG
HMCW
GCRG
ANFC
QFNV
TMAD
LPSN

one-hybrid fitness for binding parS DNA, 0.253:
VYHR

one-hybrid fitness for binding parS DNA, 0.86:
RLPS

one-hybrid fitness for binding parS DNA, 0.263:
DGDS

one-hybrid fitness for binding parS DNA, 0.6:
RIMA

one-hybrid fitness for binding parS DNA, 0.295:
RYTM

one-hybrid fitness for binding parS DNA, 0.978:
RAFG
RTHC

one-hybrid fitness for binding parS DNA, 0.298:
RTCM

one-hybrid fitness for binding parS DNA, 0.46:
RRSY

one-hybrid fitness for binding parS DNA, 0.22:
RVTH

one-hybrid fitness for binding parS DNA, 1.03:
RVCS

one-hybrid fitness for binding parS DNA, 0.578:
RFYA

one-hybrid fitness for binding parS DNA, 0.369:
RKCY

one-hybrid fitness for binding parS DNA, 0.227:
RATF

one-hybrid fitness for binding parS DNA, 0.27:
RWVM

one-hybrid fitness for binding parS DNA, 0.671:
RWMG

— a collection of fitness landscapes (doi:10.1016/j.celrep.2020.107928)
